Measurements reported in the RNAGym collection of RNA variant scans (doi:10.7554/elife.90254).
The source gives no read counts; variants with many changes may rest on few reads.

B1: OR4K15 (parent)
chain: GUUAACGGUCAUAGGCCAUGGAAACUAGGAGCACCAUUUCGCUGCCAGUGAAGAAAUGAACAAAGAAAAUCUGGGCCAGGCAGGCAUCAAAAGAAAUAGUCUUGCGCUCAACCAGAAAGUCUGUAAUCAUUUUAAGGGUA

Variants of: B1
Assay: self-cleavage, relative activity (ratio to wild type); higher = more cleavage; in vitro, sequencing; the parent is a self-cleaving ribozyme

| Variant | self-cleavage |
| --- | --- |
| GUUAACGGUCAUAGGCCAUGGAAGCUAGGAGCACCAUUUCGCUGCCAGUGAAGAAAUGAACAAAGAAAAUCUGGGCCAGGCAGGCAUCAAAAGAGGCAGUCUUGCGCUCAACCAGAUAGACUGUAAUCAUUUUAAGGGUA | 0.69 |
| GUUAACGGUCUUAGGCCACGGAAACUAGGAGCACCAUUUCGCUGCCAGUGAAGAAAUGAACAAAGGAAAUCUGGGCCAGGCAGGCAUCAAAAGAAAUAGUCUUGCGCUCAACCAGAAAGUCUGUAAUCAUUUUAUGGGUA | 1.42 |
| GUUAACGGUCAUAGGCCAUGGAAACUAGGAGCACCAUUUCGCUGCUAGUGCCGAAAUGAGCAAAGAAAAUCUGGGCCAGGCAGGCAUCAAAAGAAAUAGUCUUGCGCUCAACCAGAAAGUCUGUAAUCAUUUUAAGGGUA | 1.05 |
| GUUAACGGUCAUAGGCCAUGGAAAUUAGGAGCACCAUUUCGCUGCCAGUGAAGAAAUGAACAAAGAGAAUCUGGGCCAGGCGGGCAUCAAAAGAAAUAGUCUUGCGCUCAACCAGAAAGUCUGUAAACAUUUUAAGGGUA | 1.02 |
| GUUAACGGUCAUGGGCCAUGGAAACUAGGAGCACCAUUACGCUGCCAGUGAAGAAAUGAACAAAGAAAAUCUGGGCCAGGCAGGCAUCAGAAGAAAUAGUCUUGCGCUCAACCAGAAAGUCUGUAAUCAUUUUAAGGGUA | 1.1 |
| GUUAACGGUCAUAGGCCAUGGAAACUAGGAGCACCAUUACGCUGCCAGAGAAGGAAUGUACAAAGAAAAUCUGGGCCAGGCAGGCACCAAAGGAAAUAGUCUUGCACUCAACCAGAAAGUCUGUAAUCAUUUUAAGGGUA | 0.01 |
| GUUAACGGCCAUAGGCCAUGGAAACUAGGAGCACCAUUUCGCUGCCAGUGAAGAAAUGAACAAAGAAAAACUGGGCCAGGCAGGUAUCAAAAGAAAUAGUCUUGCGCUCAACCAGAAAGUCUGUAAUCAUCUUAAGGGUA | 0.14 |
| GUUAACGGUCAUAGGCCAUGGAAACUAGGAGCACCAUUUCGCUGCCAGUGAAGAAAUGAACAAAGAAGAUCAGGGCCAGGCAGGCAUCAAAAGAAAUAGUCUCGCGCUCAACCAGAAAGUCUGUAACCAUUUUAAGGGUA | 0.05 |
| GUUAACGGUCAUAGGCCAUGGAAACUAGGAGCACCAUUUCGCUGCCAGUGAAGAAAUGAACAAGGAAAAUCUGGGCCAGGCAGGCAUCAAAAGAAAUAGUCUUGCACUCAACCAGAGAGUCUGUAAUCAUUUUAAGGGUA | 0.02 |
| GUUUACGGUCAUAGGCCAUGGAAGCAAGGAGCACCAUUUCGCUGCCAGUGAAGAAAUGAACAAAGAAAAUCUGGGCCAGGCAGGCAUCAAAAGAAAUAGUCUUGCGCUCAACCAGAAAGUCUGUAAUCAUUUUAAGGGUA | 1.25 |
| GCUAACGGUCAUAGGCCAUGGAAACUAGGAGCACCAUUUCGCUGCCAGUGAAGAAAUGAACAAAGAAAAUCUGGGCCAGGCAGGCAUCAAAAGAAAGAGUCUUGCGCUCAACCAGGAAGUCUGUAAUCAUUUUAAGGGUA | 0.73 |
| GUUAACGGUCAUAGGCCAUGGAAACUAGGAGCACCAUAUCGCUGCCAGUGAAGAAAUGAACAAAGAGAAACUGGGCCAGGCAGGCAUCAAAAGAAAUAGUCUUGCGCUCAACCAGAAAGUCUGUAAUCAUUUUAAGGGUA | 1.36 |
| GUUAACGGUCAUAGGCCAUGGCAACUAAGAGCACCAUUUCGCUGCCAGUGAAGAAAUGAACAAAGAAAAUCUGGGCCCGGCAGGCAUCAGAAGAAAUAGUCUUGCGCUCAUCCAGAAAGUCUGUAAUCAUUUUAAGGGUA | 0.02 |
| GUUAACGGUCAUAGGCCAUGGAAACUAGGAGCACCAUUUCGCUGCCAGUGAAGAAAUGAACAAAGAAAGUCUGGGCCAGGCAGGCAUCAAAAGGAAUAGCCUUGCGCUCAACCAGAGAGUCUGUAAUCAUUUUAAGGGUA | 2.46 |
| GUUAACGGUCAUAGGCCAUGGAACCUAGGAGCACCAUUUCGCUGCCAGUGAAGAGAUGGACAAAGAAAAUCUGGGCCAGGCAGGCAUCAAAAGAAAUAGUCUUGCGCUCCACCAGAAAGUCUGUAAUCACUUUAAGAGUA | 0.24 |
| GUUAACGGUCAUAGGCCCUGGAAACUAGGAGCACCAUUUCGCUGCCAGUGAAGAAAUGAACAAAGAAAAUCUGGGCCAGGCAGGCAUCAAAAGAAAUAGUCUUGCGCUCAACCAGAGAGUCCGUAAUCAUUUUAAGGGUA | 1.91 |
| GUUAACGGUCAUAGGCCAUGGAAACUAGGAGCACCAUUUCGCUGCCAGUGAAGAAAUGAACAAAGAAAAUCUGGGCCAGGCAGGCAUCAAAAGAAAUAGUCUUGCGCUCAACCAGGAAGUCUAUAAUCACUUUAAGGGUA | 0.73 |
| GUUAACGGUCAUAGGCCAUGGAAACUAGGAGCACCAUUCCGCUGCCAGUGAAGAAAUGAACAAAGAAAGUCUGGGCCAGGCUGGCAUCAAAAGAAAUAGUCUUGCGCUCAACCAGAAAGUCUGAAAUCAUUUUAAGGGUA | 0.08 |
| GUUAGCGGUCAUAGGCCAUGGAAACUAGGAGCACCGUUUCGCUGCCAGUGAAGAAAUGAACAAAGAGAAUCUGGGCCAGGCAGGCAUCAAAAGAAAUAGUCUUGCGCUCAACCAGAAAGUCUGUAAUCAUUUUAAGGGUA | 0.79 |
| GUUAACGGUCAUAGGCCAUGGAAACCAGGAGCACCAUUUCGCUGCCAGUGAAGAAAUGGACAAAGAAAAUCUGGGCCAGGCAGGCAUCAAAAGAAAUAGUCUCGCGCUCAACCAGAAAGUCUGUAAUCAUUUUAAGGGUA | 0.61 |
